Results taken from patent US12364706B2, “Modified aminoglycoside compounds and uses thereof in disabling bacterial ribosome” (Technion Research & Development Foundation Limited, priority 2018, dated 2025).
“And” between values parts separate entries of the source, which are not always exact repeats. Identical values can stand only once.

Tested on: A-site oligonucleotide model rRNA
Conditions: 24 hours, pH 8, 37° C.; only nonspecific cleavage

Row | SMILES | concentration at which RNA cleavage was observed
1 | NCCN [ethylenediamine] | 100 mm and 200 mm
2 | NCCNCC(=O)N[C@H]1[C@H](O)[C@@H](N)[C@@H](O[C@H]2[C@H](O[C@@H]3O[C@H](CO)[C@@H](O[C@H]4O[C@@H](CN)[C@@H](O)[C@H](O)[C@H]4N)[C@H]3O)[C@@H](O)[C@H](N)C[C@@H]2N)O[C@@H]1CN [Compound 6, 4′-(2-(aminoethylamino)acetamido)-4′-deoxy-neomycin] | 10 mm
